{"source": "the supplement of paper PMC4166925", "note": "± gives the standard deviation of the averaged measurements. In all, about 33,000 sequences were measured (“E-score (dimensionless, -0.5 to 0.5)”: median about -0.049, highest 2% from about 0.37 on). Some of the results follow."}
{"system": "T1, PmTbr T-box DNA-binding domain (GST fusion)", "T1 sequence": "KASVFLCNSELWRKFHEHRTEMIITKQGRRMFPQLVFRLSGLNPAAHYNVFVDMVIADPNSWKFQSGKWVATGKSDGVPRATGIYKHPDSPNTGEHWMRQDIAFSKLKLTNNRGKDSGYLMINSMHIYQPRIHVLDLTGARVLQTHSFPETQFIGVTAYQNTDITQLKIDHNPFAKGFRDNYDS", "test": "PBM E-score of 8-mer (E-score (dimensionless, -0.5 to 0.5)); Tbr is Tbrain of the sea star Patiria miniata (Pm) or the sea urchin Strongylocentrotus purpuratus (Sp); higher = stronger binding preference; most listed sequences are background and not binding sites", "settings": "the construct has about 5 more residues each side", "outline": "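Universal Agilent oligonucleotide arrays, made double-stranded by primer extension, were incubated with 200 nM GST-fused Tbr T-box DNA-binding domain in PBS (pH 7.5). The protein was expressed in BL21 E. coli at 20 °C and purified by glutathione affinity chromatography. After scanning and quantification, the Universal PBM Analysis Suite assigned an enrichment E-score to each ungapped 8-mer, averaged over duplicate arrays.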"}
{"sequence": "CAGATTAG", "PBM E-score of 8-mer": "-0.0836 ± 0.049"}
{"sequence": "CTGTTGTA", "PBM E-score of 8-mer": "0.104 ± 0.017"}
{"sequence": "AAAGAACA", "PBM E-score of 8-mer": "-0.146 ± 0.029"}
{"sequence": "TAACTTCA", "PBM E-score of 8-mer": "0.052 ± 0.02"}
{"sequence": "GATGTCGC", "PBM E-score of 8-mer": "0.187 ± 0.049"}
{"sequence": "GATTGGGA", "PBM E-score of 8-mer": "-0.274 ± 0.015"}
{"sequence": "CTCATACC", "PBM E-score of 8-mer": "-0.00948 ± 0.008"}
{"sequence": "CTGGTGGC", "PBM E-score of 8-mer": "0.0309 ± 0.079"}
{"sequence": "CGCTAGTA", "PBM E-score of 8-mer": "0.13 ± 0.0034"}
{"sequence": "AATCTCAG", "PBM E-score of 8-mer": "0.052 ± 0.04"}
{"sequence": "GCTTCACA", "PBM E-score of 8-mer": "0.301 ± 0.014"}
{"sequence": "ACTTCTTG", "PBM E-score of 8-mer": "0.0919 ± 0.017"}
{"sequence": "GCTCAAAC", "PBM E-score of 8-mer": "-0.146 ± 0.046"}
{"sequence": "GCGAGCAC", "PBM E-score of 8-mer": "0.0386 ± 0.07"}
{"sequence": "ATTATGAA", "PBM E-score of 8-mer": "-0.118 ± 0.062"}
{"sequence": "AGTCGCAT", "PBM E-score of 8-mer": "-0.00609 ± 0.062"}
{"sequence": "CGTTTTCA", "PBM E-score of 8-mer": "0.114 ± 0.026"}
{"sequence": "GTGTTCGA", "PBM E-score of 8-mer": "0.21 ± 0.011"}
{"sequence": "AAACGTCC", "PBM E-score of 8-mer": "-0.00611 ± 0.059"}
{"sequence": "CCGCCCCG", "PBM E-score of 8-mer": "-0.211 ± 0.11"}
{"sequence": "ATAAAATA", "PBM E-score of 8-mer": "-0.067 ± 0.21"}
{"sequence": "AAGTAGAT", "PBM E-score of 8-mer": "-0.101 ± 0.098"}
{"sequence": "ACGATGCG", "PBM E-score of 8-mer": "0.114 ± 0.04"}
{"sequence": "CGCTCACG", "PBM E-score of 8-mer": "0.174 ± 0.044"}
{"sequence": "ACTGCCTG", "PBM E-score of 8-mer": "-0.0798 ± 0.053"}
{"sequence": "ACGTGAAT", "PBM E-score of 8-mer": "-0.0548 ± 0.00093"}
{"sequence": "AACGTACG", "PBM E-score of 8-mer": "0.155 ± 0.01"}
{"sequence": "GCGGCTAC", "PBM E-score of 8-mer": "-0.0566 ± 0.023"}
{"sequence": "CGTCTACC", "PBM E-score of 8-mer": "-0.252 ± 0.01"}
{"sequence": "AGGTGGAC", "PBM E-score of 8-mer": "-0.0616 ± 0.046"}
{"sequence": "GTTCCGCA", "PBM E-score of 8-mer": "-0.0322 ± 0.03"}
{"sequence": "GAACGGTA", "PBM E-score of 8-mer": "-0.211 ± 0.043"}
{"sequence": "AGGGGTTC", "PBM E-score of 8-mer": "-0.0761 ± 0.048"}
{"sequence": "AATTGGCA", "PBM E-score of 8-mer": "0.247 ± 0.036"}
{"sequence": "ATCTTGAC", "PBM E-score of 8-mer": "0.127 ± 0.016"}
{"sequence": "CCAGTACA", "PBM E-score of 8-mer": "-0.108 ± 0.083"}
{"sequence": "CGTGAATC", "PBM E-score of 8-mer": "0.243 ± 0.013"}
{"sequence": "GGTCCAGA", "PBM E-score of 8-mer": "-0.231 ± 0.024"}
{"sequence": "AGGGACGA", "PBM E-score of 8-mer": "0.0466 ± 0.051"}
{"sequence": "CAAGTAGA", "PBM E-score of 8-mer": "-0.12 ± 0.042"}
{"sequence": "CCGGCAAC", "PBM E-score of 8-mer": "0.21 ± 0.0026"}
{"sequence": "TGCATTAA", "PBM E-score of 8-mer": "-0.0738 ± 0.016"}
{"sequence": "TCTTACCA", "PBM E-score of 8-mer": "-0.0462 ± 0.011"}
{"sequence": "CTAGGAAA", "PBM E-score of 8-mer": "-0.219 ± 0.013"}
{"sequence": "GAGCTATC", "PBM E-score of 8-mer": "-0.0841 ± 0.0084"}
{"sequence": "CCTTATGC", "PBM E-score of 8-mer": "-0.139 ± 0.041"}
{"sequence": "ATGACTGG", "PBM E-score of 8-mer": "-0.237 ± 0.071"}
{"sequence": "CCGTCCCG", "PBM E-score of 8-mer": "-0.207 ± 0.027"}
{"sequence": "GCGGCGGA", "PBM E-score of 8-mer": "0.00211 ± 0.073"}
{"sequence": "GAGATGGC", "PBM E-score of 8-mer": "0.0247 ± 0.011"}
{"sequence": "GTCCAGAA", "PBM E-score of 8-mer": "-0.329 ± 0.017"}
{"sequence": "CACAGTTC", "PBM E-score of 8-mer": "0.18 ± 0.01"}
{"sequence": "CACTTTCG", "PBM E-score of 8-mer": "0.258 ± 0.004"}
{"sequence": "CGTCACCC", "PBM E-score of 8-mer": "0.373 ± 0.021"}
{"sequence": "CATAGCGA", "PBM E-score of 8-mer": "-0.0501 ± 0.0092"}
{"sequence": "GTCCCTGA", "PBM E-score of 8-mer": "-0.247 ± 0.0097"}
{"sequence": "AGGTGGGG", "PBM E-score of 8-mer": "0.217 ± 0.009"}
{"sequence": "AAAATGGC", "PBM E-score of 8-mer": "-0.173 ± 0.098"}
{"sequence": "GAACGAAC", "PBM E-score of 8-mer": "-0.0431 ± 0.072"}
{"sequence": "AAAGTCCA", "PBM E-score of 8-mer": "-0.316 ± 0.0051"}
{"sequence": "AATCCCTA", "PBM E-score of 8-mer": "-0.0162 ± 0.033"}
{"sequence": "AGGGCTAG", "PBM E-score of 8-mer": "-0.175 ± 0.04"}
{"sequence": "ACTATCCT", "PBM E-score of 8-mer": "-0.11 ± 0.04"}
{"sequence": "AGCCTGGA", "PBM E-score of 8-mer": "-0.151 ± 0.11"}
{"sequence": "AGGGTCAG", "PBM E-score of 8-mer": "-0.142 ± 0.12"}
{"sequence": "AGACAGAC", "PBM E-score of 8-mer": "-0.243 ± 0.034"}
{"sequence": "CTCAACTA", "PBM E-score of 8-mer": "-0.0737 ± 0.013"}
{"sequence": "GTAGACTA", "PBM E-score of 8-mer": "-0.16 ± 0.024"}
{"sequence": "ATATAGAA", "PBM E-score of 8-mer": "-0.374 ± 0.022"}
{"sequence": "ACTTACCA", "PBM E-score of 8-mer": "0.112 ± 0.0077"}
{"sequence": "CCTTGGGA", "PBM E-score of 8-mer": "-0.179 ± 0.014"}
{"sequence": "TAATAGAA", "PBM E-score of 8-mer": "-0.0744 ± 0.024"}
{"sequence": "AGTCGAGG", "PBM E-score of 8-mer": "0.0125 ± 0.11"}
{"sequence": "ACCCCGAC", "PBM E-score of 8-mer": "-0.00494 ± 0.0064"}
{"sequence": "CGGGCTAA", "PBM E-score of 8-mer": "-0.235 ± 0.017"}
{"sequence": "AGTTGTCA", "PBM E-score of 8-mer": "0.4064 ± 0.0017"}
{"sequence": "TAGACACA", "PBM E-score of 8-mer": "0.111 ± 0.0034"}
{"sequence": "TCTATCCA", "PBM E-score of 8-mer": "-0.354 ± 0.0079"}
{"sequence": "ACTTATCA", "PBM E-score of 8-mer": "0.239 ± 0.046"}
{"sequence": "ATAAGGGG", "PBM E-score of 8-mer": "-0.0488 ± 0.062"}
{"sequence": "TAATGCCA", "PBM E-score of 8-mer": "-0.0579 ± 0.039"}
{"sequence": "GCCTCAAC", "PBM E-score of 8-mer": "-0.158 ± 0.024"}
{"sequence": "GAATCAAA", "PBM E-score of 8-mer": "-0.116 ± 0.044"}
{"sequence": "ATACTTAC", "PBM E-score of 8-mer": "-0.0979 ± 0.024"}
{"sequence": "CGATGCAG", "PBM E-score of 8-mer": "-0.104 ± 0.0024"}
{"sequence": "ACTTCCTG", "PBM E-score of 8-mer": "-0.0233 ± 0.048"}
